Source: PubChem BioAssay AID2060508 (Molecular Pharmacology Branch, DTP, NCI, 2025)
A number of entries come with more than one value. This list holds those alone. An entry can have further records. The records of an entry repeat one measurement in other runs, samples, wells, individuals or studies.

Tested on: 454973-116-R2-J3-PDC spheroids, viability, % test/control
Assay: Anticancer human tumor 454973-116-R2-J3-PDC patient-derived pancreatic carcinoma cell line growth inhibition [GQUAD]
Conditions: spheroids with HUVEC and MSC
Excerpt: DNA G-quadruplex Stabilizer Agents in Combinations in Complex Spheroids
A high-throughput screen of multi-cell type tumor spheroids was designed to identify active combinations of DNA G-quadruplex stabilizer agents and targeted small molecules. Complex spheroids include a stromal component modeled by human endothelial cells (HUVEC) and fibroblasts modeled by human mesenchymal stem cells (MSCs). The concentration ranges selected for each drug and investigational agent were based upon clinically achievable concentrations if the clinical Cmax of the agent was known.
Compounds. […] If the clinical Cmax for an agent had not been determined, the highest concentration tested was 10 microM. […]
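Also: spheroids exposed to compounds for seven days.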
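For viability, T/C in this document: 100% = DMSO vehicle control viability.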

**Q.** How did the viability, T/C (compound alone 10 µM, stronger effect = lower value) turn out when `Cc1cnc(CNC(=O)c2c(=O)c3ccc(N4CCCN(C)CC4)nc3n3c2sc2ccccc23)cn1` was run?
**A.** 38.7, 50.6, 24.2, 49.7, 0.72, 31.4, 35.6, 0.32, 10.3, 26.8, 33.5, 0.2%

**Q.** And the IC50 (compound alone, run of 04/16/2024)?
**A.** 6.43 µM, > 10 µM, 4.5 µM, 3.83 µM, 3.12 µM, 4.16 µM, 3.48 µM, 4.45 µM, 4.1 µM, 4.66 µM, 3.77 µM
